# Test results: PubChem BioAssay AID686978 (National Center for Advancing Translational Sciences (NCATS), 2013)
# In all, about 420,000 compounds went through this assay and about 64,000 (15%) were called active. Inconclusive results, whose numbers are uncertain, are shown with a selection of clear calls. The call rests on the fitted dose curve; in most records, active means well fitted inhibition curve with a large enough effect; inconclusive means small, poorly fitted or top-dose-only effect; inactive means flat fitted curve, though single readings scatter. No potency is given beside an inconclusive call; the fits are too rough.
# Experiment: qHTS for Inhibitors of human tyrosyl-DNA phosphodiesterase 1 (TDP1): qHTS in cells in absence of CPT; further: nearly all actives have a fitted effect of over 55% in size
# Details: DT40 Tdp1-/- hTDP1 cells, no CPT, ATP luminescence, 48 h; series mostly up to 46.2 µM
# Procedure, shortened: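 Readout: luminescence from CellTiter-Glo after 30 min in the dark at RT. Cells: DT40 Tdp1-/- with stable hTDP1, 400/well. Exposure: compounds alone, ≥48 hr, 37 °C.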
# Potency means the concentration at half of the fitted maximal effect; tags describe the fitted curve by direction and shape.
row,Structure (SMILES),Potency
1,Cn1c(=O)n(C)c2cc(NC(=O)Cc3ccccc3[N+](=O)[O-])ccc21,"inconclusive [inhibitor, single point]"
2,COc1cc(-c2cc(C(=O)Nc3ccc(O)cc3)c3ccccc3n2)cc(OC)c1OC,"inconclusive [inhibitor, full curve]"
3,CCCCNc1c(-c2cccc(Sc3ccc(OC)cc3)c2)nc2ccccn12,active: 20.6 µM
4,Cc1ccn2cc(-c3ccc(NC(=O)c4ccco4)cc3)nc2c1,"inconclusive [inhibitor, single point]"
5,COCc1nc2ccccc2n1CCc1ccccc1,"inconclusive [inhibitor, single point]"
6,CC(C)NC(=O)c1cccc2c(-c3ccc(F)c(F)c3)coc12,active: 20.6 µM
7,COCCN(Cc1cc2cc3c(cc2nc1Cl)OCO3)C(=O)Nc1ccccc1OC,active: 23.1 µM
8,COc1ccc(-c2c(C)n([O-])c(C)c(C)[n+]2=O)cc1,"inconclusive [inhibitor, single point]"
9,O=C(Nc1ccc(N2CCN(C(=O)c3cccs3)CC2)cc1)c1ccco1,inactive
10,CNc1cc(CSc2ccc(Cl)cc2)nc(C)n1,"inconclusive [inhibitor, single point]"
11,COc1ccccc1N1CCN(C(=O)c2cn(C)c3ccc(S(=O)(=O)N(C)C4CCCCC4)cc3c2=O)CC1,"inconclusive [inhibitor, partial curve]"
12,O=C(N/N=C/c1ccc([N+](=O)[O-])o1)c1ccccc1NS(=O)(=O)c1cccs1,"inconclusive [inhibitor, single point]"
13,Cc1c(C)c2c(OCC(=O)N3CCC(C(=O)NCC(C)C)CC3)cc3c(c2oc1=O)CCC(C)(C)O3,inactive
14,O=C(N/N=C/c1cccc([N+](=O)[O-])c1)c1ccc(COc2ccccc2-c2ccccc2)cc1,active: 23.1 µM
15,NC(=S)Nc1nc2ccccc2s1,active: 4.11 µM
16,O=c1cc(-c2ccccc2)[nH]c2ccc(F)cc12,active: 0.517 µM
17,CCOc1ccc(Nc2nc3c(S(=O)(=O)c4cccc(Cl)c4)nnn3c3ccsc23)cc1,"inconclusive [inhibitor, single point]"
18,COc1ccc(NC2=C(C(C)=O)C(c3ccc(N(C)C)cc3)C(C(C)=O)C(C)(O)C2)cc1 (centres undefined),"inconclusive [inhibitor, partial curve, poor fit]"
19,CC(C)OCCCn1c(NN)nc2ccccc2c1=O,"inconclusive [inhibitor, single point]"
